From PubChem BioAssay (NCI) come the findings set out here.

One experiment deals with OVCAR-4 ovarian. The experiment can be described thus: NCI-60 one-dose screen, 48 h (100 = growth as untreated, 0 = no growth, -100 = all killed). The conditions noted are these: 2.5 mM.
In another experiment the test system is SK-OV-3 ovarian. The experiment is described as above. The conditions noted are these: 2.5 mM.

More than one record can exist for a structure, and the calls need not agree.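 Each cell line was grown in a 96-well plate and treated with one concentration of compound for 48 hours. Values below 10 were considered active.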 Certain results were filed several times, with different values. The list is limited to them. There may be further records. The screen tested this drug many times, at its own concentration, as given; one value stands for one run. Signs of the kind (2×) give the number of equal values in this list.

On to `O=c1[nH]cc(F)c(=O)[nH]1`, for which the growth result was “active: -6.6, -10.2, -40.2, -65, -43.7, -24, 3.51, -14.5, 6.55, 6.74, -50.4, -47.9, -51.8, -22.2, -3.47 (2×), -19.1, 0.441, 3.41, -13.8, -39.6, -39.5, -2, -21.5, -20.7, -10.8, 7.26, -13.7, 1.93, -28, -19.3, -28.4, -3.29, 5.26, 2.95, 9.18, -39.9, -2.41, -59.1, -14.6, 1.94, -32.3, -4.72, -23.5 (2×), -16.8, -4.76, -17.1, -28.5, -2.55, -30.2, -20.3, -38.1, -31.7, -49.6, -33.4, -30.7, 2.56, -21.4, -19.6, 3.57, -2.54, -6.29, -38, -33.9, -8.69, 3.87, -32.5, -53.7, -13.5, 2.15, -1.06% and inactive: 26.4, 13.1, 19.8, 27.3 (2×), 13.2, 10.3, 14.8, 13.3, 25.4, 31.4, 11.8, 27, 19, 15.8, 25.3, 95.8, 27.5 (2×), 22.1 (2×), 11, 14.2, 10.1, 12.2, 20.8, 13.5, 16.6, 29, 24, 33, 10.9, 11.1, 16.8, 31, 18.4, 41.2%” in the experiment on OVCAR-4 ovarian (runs of 1992); “inactive: 38, 37.7, 21.7, 23.1, 22.9, 44.8, 39.6, 18.3, 19.8, 11.4, 15.8, 22.5, 41.2, 34, 13.1, 31.8, 102, 92.1, 19.7, 21.5, 18.5, 65.9, 16.4, 24.7% and active: 3.1, -14.2, -47.1 (2×), -38.8, -13.3, -30.8, 6.19, -43, -31.4, -12.7, -47.9, -13.2, -17.5, 5.57, -21.9, -1.53, -2.69, -22.9, -26.6, -9.75, -3.62, -17.7%” in the experiment with OVCAR-4 ovarian (runs of 1993); “inactive: 36, 82.5, 23.2, 44.6, 14.3, 27.4, 31.1, 10.5, 13, 20.6, 12, 12.5, 36.3, 57, 16.7, 17.1, 21.5% and active: -7.92, -33, -18.2, 1.1, -18.6, -7.46, -10.3, 1.99, -9.49, 3.64, -30.9, -27.7, -16.2%” in the experiment on OVCAR-4 ovarian (runs of 1994); “inactive: 11.3, 27.8, 22.3, 13.4, 14.7, 26.7, 28, 34.4, 27.2, 20.7% and active: -18.6, -16.3, -1.02, -9.96, -11.4, 9.83, -21.6, -18.2, 6.32, 0.884, -4.24, -17.3, -28.2, 0.893, -9.23, -15.8, 6.19, 2.06, -12.9, -8.5, 7.23, -5.08, -14.1, -15.6, 2.79, 8.79, -0.79, -7%” in the experiment on OVCAR-4 ovarian (runs of 1995); “active: -12.2, -16.1, -15, 2.79, -0.287, 9.44, -36, 9.72, -0.156, 1.1, 8.98, -10.4, -34.4, -7.1, -2.77, 4.06, -11, -22.7, -6.31, -8.44, -0.985, -11.4, -2.57, -0.645, -15.2, -5.78, -14.8, -14, -32, -41.8, -7.53, -7.21, -1.53, -15.9% and inactive: 11.4, 32.1, 28.5, 14.7, 19.2, 47.5, 24.3, 25.3, 39.1, 23, 46.1, 31.3, 32.5, 20.2, 21.5, 19.9, 15.3, 33.3, 10.4, 50.1, 40.3, 12.4%” in the experiment with OVCAR-4 ovarian (runs of 1996); “inactive: 16.7 (2×), 42.3, 12.5, 12.2, 10.8, 18.3, 24.8, 26.2, 23.9, 58.7, 11.7, 25.2, 25.5, 14.4, 22.2, 23.2, 12.9, 27.9% and active: 0.832, 8.92, -1.37, 3.9, -5.05, -6.46, -10.3, -32.7, 7.99, -9.82, -5.75, -6.87, -7.54, 2.52, 7.41, 4.92, -14.6, -0.351, -8.84, -11.2%” in the experiment with OVCAR-4 ovarian (runs of 1997). In addition, the growth result with OVCAR-4 ovarian (runs of 1998) is “active: -1.08, -19.5, -21.6, -25, -17.8, -24.3, 5.99, -18.8, -15, 7.17, -2.59, 1.76, -32.9, -25.8, -16.6, -8.83% and inactive: 19.3, 16.1, 31.6, 27.1, 37.1, 26.7, 36.9, 62.6, 36.6%”; with OVCAR-4 ovarian (runs of 1999), “inactive: 52.2%, 49.9%, 24.1% and active: -56.3, -55.1, -21.3, -19.4, 1.87, 3.55, 0.714, 7.84, 1.25, 4.75, -58.6, -100, -6.12%”; in the experiment on OVCAR-4 ovarian (runs of 2000) it was “active: 1.97, -11.3, -7.81, -33.6%”; in the experiment with SK-OV-3 ovarian (runs of 1991), “active: 1.22, -7.87, -51, -19.5, -2.39, -1.51, -50, -34.5, -0.61, -1.91% and inactive: 35.9, 39.2, 18.1, 31.9, 19.7, 40%”; in the experiment on SK-OV-3 ovarian (runs of 1992) it was “inactive: 17.5, 57.5, 16 (2×), 18.1, 34.5, 33.3, 33.4, 18.7, 28.9, 23, 37.9, 79.8, 11.7, 13.9, 28.8, 31.5, 31.8 (2×), 18.2, 26.5, 20.4, 12.9, 16.1, 10.9, 25.2, 10.4, 18.6, 35.1, 16.7 (2×), 10, 26.4, 18.3, 16.6, 14.3, 17.6, 10.8, 17, 24.1, 51.8, 35.8, 10.7, 29.8, 11.2, 16.2, 47.1, 12.1, 15.4, 20.6, 26.6, 10.3, 22.8, 28.1, 14% and active: 6.06, -1.44, 7.29, 9.45, 9.77, -24, 5, -14.2, -19.7, -0.988, 1.62, 6.84, 9.42, 9.66, 4.9 (2×), 3.65, -23.9, -1.73, -5.57, 1.82, 0.759, -17.9, -26.5, -21.3 (2×), 0.573, 0.952, -45, -31.2, -11.7 (2×), 7.71, 3.94, -3.76, -6.08, 8.71, 0.25, 0.521, -13.7, -5.09, -13.6, -20.2, -14.6, -29.8, -69, -5.38, 5.43, 9.91, 8.65, -3.51, -4.73, -30.2, -23.5, -32, 7.15, 1.91, -43.1, -10.4, -69.5, 1.72, 8.4, -54.1, -22.4%”; with SK-OV-3 ovarian (runs of 1993) it was “active: 6, -12.6, -8.36, -1.59, 5.64, 5.03, -12, 8.76, 5.95% and inactive: 22.1, 37.3, 30.4, 47.5, 31.8, 59.9, 39.2, 41.8, 16.7, 38.2, 37.4, 17.6, 21.7, 21.9, 24.6, 15.9, 14.6, 22.9, 14.9, 13.1, 26.7, 29.1, 25, 98.8, 46.7, 93.4, 58.4, 18.7, 18.3, 34.2, 38.5, 29.9, 10.7%”. Also, the growth result was “inactive: 21.7, 30, 46.3, 22.9, 25.4, 22, 35.5, 22.6, 21.2, 27.4, 13.1, 31.7, 22.5, 16.5 (2×), 28.9, 27.2, 25.7, 20.7, 24.7, 38.1, 13.8, 28.3% and active: -9.37, 3.65, 5.29, -0.576, -31.5, -4.79, -29.8%” in the experiment with SK-OV-3 ovarian (runs of 1994); “inactive: 43.7, 25, 35, 22.7, 24.7, 34.6, 36.6, 25.8, 30.5, 26.5, 14.9, 60.6, 26.6, 29.6, 34.3, 81% and active: -15.3, -14.4, -0.136, 3.23, -0.355, -31.7, -18.5, -7.47, -24.5, 4.62%” in the experiment on SK-OV-3 ovarian (runs of 1995); “inactive: 33, 24.4, 47.2, 37.8, 48.2, 72.3, 19.6, 31.2 (2×), 30.7, 35.8, 37.4, 26.6, 35.7, 23, 40.3, 19.4, 31.1, 21.7, 20.6, 21.4, 22.7, 30, 46.6, 24, 29.8, 26.7, 21.8, 44.2, 38.4, 55.3, 56.8, 48.6, 43.2, 53, 50.8, 30.3, 56.3, 62.7 (2×), 43.6, 38.5, 24.9, 47.3, 43.1, 74.5, 58.1, 32.7, 30.6, 57.2, 20% and active: -3.82, -0.327, -1.2, 9.16, 0.871, 8.43, -38.2%” in the experiment on SK-OV-3 ovarian (runs of 1996).
